Measurements reported in patent EP4755449A2.

Assays:
Test in all cases: SPR 25C
[1] = molecular target: human Fc gamma RIIaR extracellular domain, His-tagged (human) (UniProt P12318)
[2] = molecular target: human Fc gamma RIIIaV extracellular domain, His-tagged (human) (UniProt P08637)
[3] = molecular target: human Fc gamma RIIaH extracellular domain, His-tagged (human) (UniProt P12318)
[4] = molecular target: human Fc gamma RIIb extracellular domain, His-tagged (human) (UniProt P31994)
[5] = molecular target: cyno Fc gamma RIIb extracellular domain, His-tagged (cynomolgus monkey)
Chain of cyno Fc gamma RIIb extracellular domain, His-tagged (cynomolgus monkey) (chain, as listed by the source): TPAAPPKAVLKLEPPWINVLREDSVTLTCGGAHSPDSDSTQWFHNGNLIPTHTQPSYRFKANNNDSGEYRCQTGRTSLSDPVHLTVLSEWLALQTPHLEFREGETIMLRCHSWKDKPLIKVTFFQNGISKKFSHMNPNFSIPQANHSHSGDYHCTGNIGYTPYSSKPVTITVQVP

[6] = molecular target: cyno Fc gamma RIIa1 extracellular domain, His-tagged (cynomolgus monkey)
[7] = molecular target: cyno Fc gamma RIIa2 extracellular domain, His-tagged (cynomolgus monkey)
[8] = molecular target: cyno Fc gamma RIIIaS extracellular domain, His-tagged (cynomolgus monkey) (UniProt Q8SPW2)
Chain of UniProt Q8SPW2 (Q8SPW2 other isoform, or with tags, fused parts or gaps): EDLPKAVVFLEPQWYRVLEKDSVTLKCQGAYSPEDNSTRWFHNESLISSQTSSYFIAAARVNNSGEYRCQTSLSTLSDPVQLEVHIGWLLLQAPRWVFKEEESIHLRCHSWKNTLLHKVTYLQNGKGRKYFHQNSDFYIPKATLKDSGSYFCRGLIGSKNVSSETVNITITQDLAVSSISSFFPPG

[9] = molecular target: cyno Fc gamma RIIa3 extracellular domain, His-tagged (cynomolgus monkey)

Chain of UniProt P08637 (P08637 17-208 F176V): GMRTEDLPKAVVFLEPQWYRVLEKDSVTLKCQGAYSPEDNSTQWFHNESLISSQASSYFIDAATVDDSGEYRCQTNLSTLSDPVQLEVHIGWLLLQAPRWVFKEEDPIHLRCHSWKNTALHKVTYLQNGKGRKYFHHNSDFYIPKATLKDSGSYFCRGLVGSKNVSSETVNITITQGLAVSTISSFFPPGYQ
Chain of UniProt P31994 (P31994 43-217): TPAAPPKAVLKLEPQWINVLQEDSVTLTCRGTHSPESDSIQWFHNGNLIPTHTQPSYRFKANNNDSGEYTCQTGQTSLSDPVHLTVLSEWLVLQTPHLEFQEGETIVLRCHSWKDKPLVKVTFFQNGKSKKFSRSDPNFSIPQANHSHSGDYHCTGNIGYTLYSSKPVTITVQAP

B1: M103205H795-MY001/M103202L889-SK1 (antibody, human IgG1, kappa)
heavy: QVTLKESGPVLVKPTETLTLTCTVSGIDLSHDDISWVRQAPGKGLEWVGIISYAGSTYYASWAKGRLTISKDTSKNQVVLTMTNMDPVDTATYYCARGVPAYSHGGDLWGQGTLVTVSSASTKGPSVFPLAPSSKSTSGGTAALGCLVKDYFPEPVTVSWNSGALTSGVHTFPAVLQSSGLYSLSSVVTVPSSSLGTQTYICNVNHKPSNTKVDKKV[letters of human IgG1 Fc with G236N (EU numbers) not shown]
light: DIVMTQSPATLSLSPGERATLSCTSSQSVYHANWLSWFQQKPGQPPKLLIYWASTLAYGVPSRFSGSGSGTDFTLTISSLQPEDAATYYCAGGYGGGRYAFGQGTKVEIKRTVAAPSVFIFPPSDEQLKSGTASVVCLLNNFYPREAKVQWKVDNALQSGNSQESVTEQDSKDSTYSLSSTLTLSKADYEKHKVYACEVTHQGLSSPVTKSFNRGEC
[1]
  KD fold vs SG1: 0.1 fold
[2]
  KD fold vs SG1: 0.04 fold
[3]
  KD fold vs SG1: 0.2 fold
[4]
  KD fold vs SG1: 0.6 fold
[5]
  relative binding: 85 SG1=100
[6]
  relative binding: 83 SG1=100
[7]
  relative binding: 86 SG1=100
[8]
  KD fold vs SG1: 0.03 fold
  relative binding: 15 SG1=100
[9]
  relative binding: 62 SG1=100
